We go through 44 sequences from the supplement of paper PMC11417369.

This is one part of the list.

The subject of this assay is PF3D7_0420300 AP2 domain 1 (GST-tagged). In words: gcPBM binding intensity (ln(normalized median fluorescence intensity)); higher = stronger DNA binding. In outline:
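In this array assay, P. falciparum DNA-binding domains with a GST tag, expressed in E. coli, were applied for 1 h to primer-extended double-stranded 36-bp intergenic genomic probes and negative controls on an Agilent 4 × 180k array. Bound protein was visualised with Alexa488 anti-GST antibody at 488 nm. Binding intensity is the highest Masliner-normalised natural-log median intensity across replicate spots of either probe orientation.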
As for “CTCAAATAACTTTTTACACACATTATTTGAAATAAG [CACACA_site6722]”, the “gcPBM binding intensity (ln)” value is 9.41.

For “ATATGAATGATCGTACGTACTTACATATTTATAAAG [XGTACX_site8041]”, the “gcPBM binding intensity (ln)” value turned out to be 9.19. With “CAGAATACATACATTACACACAAATTTAAGTATATA [CACACA_site1781]” the figure was 9.71; with “AAGTTCAAAATAAATGGTACAGAAGTATATATATCA [XGTACX_site174]”, 9.46; with “TAAAAAAAGAGATATTGTACACAAAAAAATTTTACT [XGTACX_site1342]”, 9.38. With “TAGAAAAAAAAATACATACACACAATATATTTATTT [CACACA_site3123]” the figure was 9.63; with “TATATATTTGTGAAAATATTAAAATAAATAAATAAA [CACACA_negctrl_site295]”, 8.99. With “AAAATCTAGGTATTTATACACACTAATATAATATAC [CACACA_site8108]” the figure was 9.33; with “CATATAAGACAAAAGGTGCAATTTTAATGCTTTTAT [GTGCAC_site9432]”, 9.31; with “AACCCTTTTGATTTTTCTTTTTTTTTTTTTTTAAAT [CACACA_negctrl_site1667]”, 9.28. Regarding “ACAGTTTGTCTGAGTAGTACATAAATACTTGAAAGG [XGTACX_site7792]”, the “gcPBM binding intensity (ln)” value was 9.07.

“AGAAGGATATTATGAAGTACACATATTGTATATGGT [XGTACX_site7503]”: the “gcPBM binding intensity (ln)” value was 9.3. Turning to “TAGTAAAATGGAACACGTACATATATCTATGTATAA [XGTACX_site6103]”, the “gcPBM binding intensity (ln)” value came to 9.38.

In the case of “CCATATATAATGACATGTACTCAAAAAAAAAAAAAA [XGTACX_site685]”, the “gcPBM binding intensity (ln)” value is 8.94.

As for “TTTCTCTTTTTTTGGGGTACAACCAATCCTATAATA [XGTACX_site297]”, the “gcPBM binding intensity (ln)” value came out at 9.02. In the case of “ATACATATATATATATGTACATATATTTATATTTAT [XGTACX_site3155]”, the “gcPBM binding intensity (ln)” value turned out to be 9.21. “TTTTTAAAAAAAAATAGAGAGTCAAAGTATGTGGCG [CACACA_negctrl_site194]”: the “gcPBM binding intensity (ln)” value came out at 9.32. With “TTTCAAGGATTTAATTTATGGAAACCTTCTTCATTT [GTGCAC_negctrl_site504]” the figure was 8.89; with “TAATTCAAACGTGTATGTATATTACTCGAAGAAATA [CACACA_negctrl_site1779]”, 9.03; with “GGACGTATTAAAAGGCGTACACTAAATATTTTATGT [XGTACX_site146]”, 9.19. With “TAATATTTATATAATTGTACTTTGTTTGTAAATCCA [XGTACX_site7292]” the figure was 9.1. In the case of “ATTATAATTTTGTAAAGTACATATTATTATATATTA [XGTACX_site7191]” it was 8.98. On to “AAGATAATTACGCACACACACACACGCCCACAACTA [CACACA_site7255]”, for which the “gcPBM binding intensity (ln)” value came out at 10.2. In the case of “TATTTATATAATCCTATAATATTACTACTATCTTTA [GTGCAC_negctrl_site342]” it was 9.19. In the case of “AAGGTAAAATATAAGTGTACTTTTTCTTAATCTTCG [XGTACX_site514]” it was 9.16. In the case of “ATATATAATATAATATGTACATATAATCAATCCTGT [XGTACX_site8694]” it was 9.42; in that of “ATTTAGTATTCGAAACGTACACATATATATATATAT [XGTACX_site3910]”, 9.33; in that of “ATATTTTTTTTCTTCACACACATGAGTTATAAATAA [CACACA_site7498]”, 9.59. In the case of “AATGAAACAATACCCAGTAAAAAAAAAAAATAAATA [TGCATGCA_negctrl_site205]”, the “gcPBM binding intensity (ln)” value is 9.65. In the case of “TGTAATCTGGAGAAGAGTACACAGTATCTGGTAGCT [XGTACX_site4935]” it was 9.08. In the case of “ATATCTATAATAAACACACAAATAGATATAACATAT [CACACA_site7702]” it was 9.85; in that of “AAAAAAAAATTAAAAACACACATATATATATATATA [CACACA_site1580]”, 9.23; in that of TATATATATATATATGTGCACATTTATTGCCTTTGC, 9.18. In the case of “TAAGTATATTTCTGCACACAAAAAAAAAAACCAAAA [CACACA_site4056]” it was 9.56; in that of “AAAATTTAATATGAATGTACATAAAAAAAAAAAAAA [XGTACX_site6719]”, 9.11. Take “ATACACAAATGCATACGTACATATATATATATATAT [XGTACX_site3504]”: the “gcPBM binding intensity (ln)” value was 9.35. With “CATATAAGAATCTTCTGTACTTATAAGAAAAGACAT [XGTACX_site8135]” the figure was 9.02; with “ATGTAATATGTTCATGCATGTAAAATTACATTTAGA [TGCATGCA_site852]”, 9.12.

For the sequence “AAAAAAAAAAAAACAACACACAATGTTTTATTTTAC [CACACA_site1613]”, the “gcPBM binding intensity (ln)” value was 9.26. With “TAAAACAAAATAACATGTACAAAAAAAAAAAAAAAA [XGTACX_site2915]” the figure was 8.92. Consider “GTACATATAAATATTACACACATTTTCATTTTTAAC [CACACA_site1986]”, for which the “gcPBM binding intensity (ln)” value was 9.56. In the case of “AAATCGAACAAATTATGTACTAAAAAAAAAATTTAT [XGTACX_site6399]” it was 9.07; in that of “ATCTTTCGAACATGTACACACAGAAAAAAAAAAAAA [CACACA_site5393]”, 9.44. With “TTATATGCATCCAAAAAGGAATGTTTTTAGAGAATC [CACACA_negctrl_site1062]” the figure was 8.88.
